According to the RNAGym collection of RNA variant scans (doi:10.7554/elife.90254):
The source gives no read counts; variants with many changes may rest on few reads.

B1: LINE1-mini (parent)
chain: GGCAGAGCUCAACACAGCGUGGCAAAGUGGCUGUGGCUAGACUGCC

Variants of: B1
Assay: self-cleavage, relative activity (ratio to wild type); higher = more cleavage; in vitro, sequencing; the parent is a self-cleaving ribozyme

Row | Variant | self-cleavage
1 | GGCAGAACUCAACACAGCGUGGCAAAUUGGCUGUGGCUAGACUGCG [G7A G27U C46G] | 0.14
2 | GGCAGAACUCAACACAGCGUGGCAAAGUGGCUGUACCUAGACUGCC [G7A G35A G36C] | 0.16
3 | GGCAGAACUCAACACAGCGUGGCAAAGUUGCUGUGGCUAGACUGGC [G7A G29U C45G] | 0.2
4 | GGCAGAACUCAACACAGCUUGGCAAAGCGGCUGUGUCUAGACUGCC [G7A G19U U28C G36U] | 0.05
5 | GGCAGAACCCAACACAGCGUGGCAAAGUGGCUGUGGCUCGACUUCC [G7A U9C A39C G44U] | 0.02
6 | GGCAGAACUCAACACAGCGUGGCAAAGUGGCUGUCGCUAGAAUGCC [G7A G35C C42A] | 0.05
7 | GGCAGAACUCAACACAGCGUGAUAAAGUGGCUGUGGCGAGACUUCA [G7A G22A C23U U38G G44U C46A] | 0.01
8 | GGCAGAACUCAACACAGCGUGGCAAAGUGGCUGUGAGUAGACUGCC [G7A G36A C37G] | 0.02
9 | GGCAGAACUCAACACAGCGUGGCAAACUGGGUGCGGCUAGACUGCC [G7A G27C C31G U34C] | 0.05
10 | GGCAGAACUCAACACAGCGUGGCAAAGUGACUGUGGCUAGACUGAC [G7A G30A C45A] | 0.12
11 | GGCAGAACACUACGCAGCGUGGCAAAGUGGCUGUGGCUAGACUGCG [G7A U9A A11U A14G C46G] | 0.03
12 | GGCAGAACACAACACAACGUGGCAAAUUGGAUGUGGCUAGACUGCC [G7A U9A G17A G27U C31A] | 0.5
13 | GGCAGAACUCAACACAGCGUGGCAAAGUGGCUACGGUUAGACUGCC [G7A G33A U34C C37U] | 0.05
14 | GGCAGAACUCAACACAGCGUGCCAAAGUGGCUCUGGCUAGACAGCU [G7A G22C G33C U43A C46U] | 0.11
15 | GGCAGAACUCAACACAGCGUGGCAAAGUGGCUGUGGCUAAAGUGCC [G7A G40A C42G] | 0.03
16 | GGCAGAACCCAACACAACGUGGCAAAAUGGAUGUGGCUAGACUACC [G7A U9C G17A G27A C31A G44A] | 0.01
17 | GGCAGAACGAAACACAGCGUGGCAAAGUGGCUGGGGCUAGACUGCC [G7A U9G C10A U34G] | 0.04
18 | GGCAGAACUCAACACAGCGUGGCAAAGUGGCUGUGGCUAUACUUCC [G7A G40U G44U] | 0.23
19 | GGCAGAACACAACACAGCGUGGCAAAGUGGCUGUGGAUAGACUGCC [G7A U9A C37A] | 0.05

Row | Variant | self-cleavage
20 | GGCAGAACUCAACACAGCGUGGCAAAGUGGCUGUGACUGGACUGCC [G7A G36A A39G] | 0.1
21 | GGCAGAACUCAACACAGCGUGGCAAAGUGCCUGUGCCUAGACUGCC [G7A G30C G36C] | 0.13
22 | GGCAGAACUCAACACAGCGUGGCAAAAUGGCUGUGUCUAGACUGCC [G7A G27A G36U] | 0.04
23 | GGCAGAACUCAACACAGCGUGGCAAACUGGCUGUGGCGAGACUGCC [G7A G27C U38G] | 0.01
24 | GGCAGAACUCAACACAGCGUGGCAAAUUGGCUCUGGCUAGACUUCC [G7A G27U G33C G44U] | 0.21
25 | GGCAGAACUCAACACAGCUUGGCAAAGUGGCUUUGGCUACAAUGCC [G7A G19U G33U G40C C42A] | 0.04
26 | GGCAGAACACGACACAGCGUGGCAAAGUGGCUGUGGCUAGACUGCC [G7A U9A A11G] | 0.01
27 | GGCAGAACUCAACACAGCGUGGCAAAGUUGAUCUGGCUAGACCACU [G7A G29U C31A G33C U43C G44A C46U] | 0.05
28 | GGCAGAACUCAACACAGCGUGACAAAGGGGCUGUGGCUAGACUGAA [G7A G22A U28G C45A C46A] | 0.04
29 | GGCAGAACUCAACACAGCGUGUCAAAGUGGCUGUGGCUAGUAUGCU [G7A G22U A41U C42A C46U] | 0.02
30 | GGCAGAACUCAACACAGCGUGGCAAAGUCGCUGUGGCUAGAUUGCC [G7A G29C C42U] | 0.11
31 | GGCAGAACUCAACACAGCGUGGCAAAGUCGCUCUGGCCAGACUGAC [G7A G29C G33C U38C C45A] | 0.1
32 | GGCAGAACUCAACACAGCGUGGCAAAAUGUCUGUGGCUAGACUGCC [G7A G27A G30U] | 0.22
33 | GGCAGAACUCAACACAGCGUGGCAAAGUGCCUGUGGCUCGAUUGCC [G7A G30C A39C C42U] | 0.19
34 | GGCAGAACCCAACACAGCGUGGCAAAGUGGCUGUGGCUAGAGUGCC [G7A U9C C42G] | 0.02
35 | GGCAGAACCAAAAACAGCGUGGCAAAGUGGCUGAGGCUAGACUGCC [G7A U9C C10A C13A U34A] | 0.08
36 | GGCAGAACCCAACACAGCGUGGCAAAGUGGCUGUGGCUUGACUGCC [G7A U9C A39U] | 0.07
37 | GGCAGAACACAACACAGCGUGGCCAAGUGGCUGUGGCUAGACUGCC [G7A U9A A24C] | 0.17
38 | GGCAGAACCCAACACAACGUGGCAAAGUGGCUGUGGCUAGACUGCC [G7A U9C G17A] | 0.04

Row | Variant | self-cleavage
39 | GGCAGAACUCAACACAGCGUGAUAAAAUGGCUGUGGCUAGACUGCC [G7A G22A C23U G27A] | 0.03
40 | GGCAGAACUCAACACAGCGUGGCAAAUUGGCUGUGGCUAGACCGCC [G7A G27U U43C] | 0.43
41 | GGCAGAACCCAACACAGCGUGGCAAAUUGGCUUUGGCUAGACUGCC [G7A U9C G27U G33U] | 0.1
42 | GGCAGAACUCAACACAGCGUUGCAAAGUGGCUGUAGCUAGACUGCC [G7A G21U G35A] | 0.11
43 | GGCAGAACUCAACACAGCUUGGCAAAGUGGCUUUGGCUAGAGUGCC [G7A G19U G33U C42G] | 0.05
44 | GGCAGAACUCAACACAGCGUGGCAAAGUGGCUGUUGCUAGACUACC [G7A G35U G44A] | 0.24
45 | GGCAGAACUCAACACAGCUUGGCAAAGUGGCUGUCGCUACACUGCC [G7A G19U G35C G40C] | 0.01
46 | GGCAGAACUCAACACAGCGUGGCAAAGUGGCUGUUGCGAGUAUGCC [G7A G35U U38G A41U C42A] | 0.01
47 | GGCAGAACUCAACACAGCGUGCCAAAGUGAGUGUGGCUAGACUGCC [G7A G22C G30A C31G] | 0.06
48 | GGCAGAACUCAACACAGCGUGGCAAAGUGGCUGUUGCUAGCCUGCC [G7A G35U A41C] | 0.05
49 | GGCAGAACUCAACACAGCGUGGCAAACUGGCUGUCGCUAGACUGCC [G7A G27C G35C] | 0.01
50 | GGCAGAACUCAACACAGCGUAGCAUAGAGGCUGUGGCUAGACUGCC [G7A G21A A25U U28A] | 0.03
51 | GGCAGAACUCAACACAGCGUGGCAAAGUGGCUGUUGCUAAACUGCC [G7A G35U G40A] | 0.02
52 | GGCAGAACUCAACACAGCGUGGCAAAGUUGCUGUGGCUGGACUUCC [G7A G29U A39G G44U] | 0.11
53 | GGCAGAACUCAACACAGCGUGGCAAAGUCGCUGUGCCUAGACUGCC [G7A G29C G36C] | 0.02
54 | GGCAGAACCCAUCCCAGCGUGGCAAAGUGGAUGUCGCUAGACUGCC [G7A U9C A12U A14C C31A G35C] | 0.02
55 | GGCAGAACUCAACACAGCGUGUCAAAGUGGCUUUGCCUAGACUGCC [G7A G22U G33U G36C] | 0.07
56 | GGCAGAACUCAACACAGCGUUGCCCAGUGGCUGUGGCUAGACUGCC [G7A G21U A24C A25C] | 0.06
